From paper PMC4336329 (PLoS ONE, 2015)
About 2,200 (0.71%) of roughly 310,000 compounds showed an effect of 50% or more. The effect is printed as a negative number. This is one part of the list.

What follows are compounds tested against human ether-à-go-go-related gene (hERG) potassium channel (human, UniProt Q12809) (assay: primary screen, population patch clamp on CHO cells stably expressing hERG).
Chain of human ether-à-go-go-related gene (hERG) potassium channel (Q12809 whole entry, looked up): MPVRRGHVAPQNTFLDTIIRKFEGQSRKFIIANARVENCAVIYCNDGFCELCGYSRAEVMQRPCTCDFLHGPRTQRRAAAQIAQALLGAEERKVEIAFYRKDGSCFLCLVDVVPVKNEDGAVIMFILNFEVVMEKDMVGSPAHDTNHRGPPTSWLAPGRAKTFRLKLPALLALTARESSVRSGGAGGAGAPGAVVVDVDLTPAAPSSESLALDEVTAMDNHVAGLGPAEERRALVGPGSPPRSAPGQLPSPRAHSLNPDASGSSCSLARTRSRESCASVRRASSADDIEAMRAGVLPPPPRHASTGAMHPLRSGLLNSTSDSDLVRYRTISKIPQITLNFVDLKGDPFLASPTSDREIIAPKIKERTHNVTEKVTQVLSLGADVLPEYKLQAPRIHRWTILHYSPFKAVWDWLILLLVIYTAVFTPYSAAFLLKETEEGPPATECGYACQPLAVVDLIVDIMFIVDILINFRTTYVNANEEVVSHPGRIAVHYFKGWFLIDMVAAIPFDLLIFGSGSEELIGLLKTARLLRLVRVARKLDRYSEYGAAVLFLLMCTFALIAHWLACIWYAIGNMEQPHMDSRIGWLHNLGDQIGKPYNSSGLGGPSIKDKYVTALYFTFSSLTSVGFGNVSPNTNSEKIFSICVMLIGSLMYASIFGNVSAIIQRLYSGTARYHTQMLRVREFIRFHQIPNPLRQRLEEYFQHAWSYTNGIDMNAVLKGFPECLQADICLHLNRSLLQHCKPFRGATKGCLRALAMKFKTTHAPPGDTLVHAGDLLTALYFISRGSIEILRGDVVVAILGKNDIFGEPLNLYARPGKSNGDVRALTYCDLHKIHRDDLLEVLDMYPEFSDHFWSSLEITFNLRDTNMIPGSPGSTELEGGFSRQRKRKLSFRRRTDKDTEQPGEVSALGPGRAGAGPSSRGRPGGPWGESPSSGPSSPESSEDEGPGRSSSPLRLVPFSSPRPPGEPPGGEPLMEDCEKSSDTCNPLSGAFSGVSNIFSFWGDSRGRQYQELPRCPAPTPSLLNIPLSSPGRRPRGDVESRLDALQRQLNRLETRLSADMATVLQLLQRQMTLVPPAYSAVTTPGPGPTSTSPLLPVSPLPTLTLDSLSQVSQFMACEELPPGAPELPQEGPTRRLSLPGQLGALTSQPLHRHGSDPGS

Compound	hERG current change (%, negative = inhibition) at 1uM [%]
CN(C)S(=O)(=O)N1CCN(c2cc(Cl)ccc2Cl)CC1	16.5
O=C(Nc1ccccc1C(=O)N1CCOCC1)C1CCCO1 (stereo not shown)	8.21
CC(=O)c1c(C)[nH]c(C(=O)NCc2ccco2)c1C	-0.592
Cc1ccc(CNC(=O)CCN2C(=O)[C@@H]3Cc4ccccc4CN3C2=O)cc1	2.53
CCSc1nnc(-c2ccc(OC)cc2)o1	3.96
COc1ccc(C2C(C(=O)N3CC(C)CC(C)C3)c3ccccc3C(=O)N2C)cc1 (stereo not shown)	10.8
CCOC(=O)C1CCN(C(=O)CCNC(=O)Cn2cnc3ccccc3c2=O)CC1	3.22
CC(C)C[C@H](NC(=O)N1CC(=O)Nc2ccccc21)C(=O)N[C@@H](Cc1c[nH]c2ccccc12)C(=O)O	10.6
Cc1csc2ncc(C(=O)N(Cc3ccccc3)c3ccccn3)c(=O)n12	14.1
O=C1CSC(c2cccc(F)c2)N1c1ccc(O)cc1 (stereo not shown)	14.6
CN(C(=O)c1ccc2c(c1)CCO2)C(C)(C)C	12.9
CCOP(=O)(OCC)Oc1cc(C)c(N(C)C)c(C)c1	5.68
Cc1ccc(S(=O)(=O)N2CCC(C(=O)Nc3ccccc3N3CCCC3)CC2)cc1	12.9
CCc1cccc(NC(=O)c2sc3nc4n(c(=O)c3c2C)CCC4)c1	1.39
Cc1cc2c(c(=O)n1C1CC1)C(c1cccc(Cl)c1)C(C#N)=C(N)O2 (stereo not shown)	-9.66
COc1ccc(NC(=O)C2CCCN(c3nccc(C)n3)C2)cc1 (stereo not shown)	-0.18
Cc1ccc(-c2nn(C)c(=O)c3ccccc23)cc1CN1CCOCC1	11.3
CC1CCCC(NC(=O)NC(=O)COC(=O)c2ccc(O)cc2O)C1C (stereo not shown)	10.9
O=C(O)C1CCN(C(=O)COc2ccc3c4c(c(=O)oc3c2)CCCC4)CC1	-5.91
O=Cc1ccc(OC(=O)CCCCC(=O)Oc2ccc(C=O)cc2)cc1	19
COc1ccc2c(CCNC(=O)/C=C/c3ccc(OC)c(OC)c3)c[nH]c2c1	16.7
CC1(C)Cc2cccc(C(=O)Nc3ccc(Cl)cc3)c2O1	14.5

Compound	hERG current change (%, negative = inhibition) at 1uM [%]
COc1ccc(-c2noc(CN(C)C(=O)Nc3ccccc3)n2)cc1	10.5
COC(=O)c1ccccc1NC(=O)CSc1n[nH]c(-c2ccco2)n1	15.9
CCOc1cc(CNCCc2cccc(F)c2)ccc1OC.O=C(O)C(=O)O	-12.7
COc1ccccc1C(=O)NCCc1nc2ccccc2[nH]1	13.9
Cc1ccnc2c(N3C(=O)C4C5C=CC(C5)C4(C)C3=O)cccc12 (stereo not shown)	4.95
COc1cccc(N2CCN(C(=O)c3ccc(CS(=O)Cc4ccc(C)cc4)o3)CC2)c1 (stereo not shown)	4.41
CC(NC(=O)[C@H](NC(=O)[C@@H]1Cc2ccccc2CN1)c1ccccc1)c1ccccc1 (stereo partly shown)	2.59
CCOCCCNC(=O)c1cc(Nc2ccc(OC)cc2OC)nc2ccccc12	-1.43
CC(=O)c1cccc(NC(=O)NC(C)c2ccncc2)c1 (stereo not shown)	0.278
C=C1CCC[C@]2(C)C[C@H]3OC(=O)C(CNCC(C)C)[C@H]3CC12 (stereo partly shown)	0.0946
N#Cc1cnc(Nc2nc3ccccc3o2)nc1-c1ccccc1	9.81
COc1cccc(CNC(=O)CCC(=O)N2C[C@H]3C[C@H](C2)c2cccc(=O)n2C3)c1OC	13.4
COc1ccc(NC(=O)c2ccc(-c3ccccc3Cl)o2)cc1	-0.299
Clc1ccc(-c2nnc3n2-c2ccccc2SC3)cc1	8.63
Cc1cc(C)n(-c2ccc(C(=O)Nc3ccc(C)c(S(=O)(=O)N4CCOCC4)c3)cc2)n1	10.5
CCOC(=O)c1cnc2nc(NCc3ccc(OC)c(OC)c3)[nH]n2c1=O	5.88
COc1ccccc1NC(=O)C1=C(C)NC(SCC(=O)Nc2ccc(C(=O)O)cc2)=C(C#N)C1c1cccs1 (stereo not shown)	16.4
Cc1oc(-c2ccccc2Cl)nc1CN(Cc1ccccn1)C[C@@H]1CCC(=O)N1	3.6
Cc1ccc(S(=O)(=O)/N=C(\N)Nc2nc(C)c3cc(C)ccc3n2)cc1	0.79
COc1ccc(Oc2c(C(F)(F)F)oc3cc(OCC(=O)O)ccc3c2=O)cc1	10.2
CCn1c(N)nc2c1c(=O)n(C)c(=O)n2C	12.8
